According to patent US20250276979A1, “SARS-COV2 MAIN PROTEASE INHIBITORS” (Gilead Sciences, Inc., priority 2024, published 2025):

Target: recombinant SARS-CoV-2 Main protease (Mpro) (Severe acute respiratory syndrome coronavirus 2, UniProt P0DTD1)
Test: Cov Mpro Biochemical IC50 Assay
Settings: 7.5 nM Mpro, fluorogenic peptide substrate 40 μM, 20 min pre-incubation

| Compound | IC50 |
| --- | --- |
| COc1cc(-c2cc3[nH]c(=O)n([C@@H]4CCCNC(=O)C4)c(=O)c3cc2OC)c(C#N)cc1F [Example 56, (R)-5-fluoro-4-methoxy-2-(6-methoxy-2,4-dioxo-3-(2-oxoazepan-4-yl)-1,2,3,4-tetrahydroquinazolin-7-yl)benzonitrile] | 33.7 nM |
| COc1cc(-c2cc3c(s2)c(=O)n([C@@H]2CCCNC(=O)C2)c(=O)n3CCOC(F)(F)F)c(Cl)cc1F [Example 38, (R)-6-(2-chloro-4-fluoro-5-methoxyphenyl)-3-(2-oxoazepan-4-yl)-1-(2-(trifluoromethoxy)ethyl)thieno[3,2-d]pyrimidine-2,4(1H,3H)-dione] | 186 nM |
| COc1cc(-c2cc3[nH]c(=O)n([C@H]4CCNC(=O)C4)c(=O)c3s2)c(Cl)cc1F [Example 16, (S)-6-(2-chloro-4-fluoro-5-methoxyphenyl)-3-(2-oxopiperidin-4-yl)thieno[3,2-d]pyrimidine-2,4(1H,3H)-dione] | 14 nM |
| Cc1cc(-c2cccc(Cl)c2-c2cc3[nH]c(=O)n(C4CCNC(=O)C4)c(=O)c3s2)cn2ncnc12 (centres unmarked) [Example 11, 6-(2-chloro-6-(8-methyl-[1,2,4]triazolo[1,5-a]pyridin-6-yl)phenyl)-3-(2-oxopiperidin-4-yl)thieno[3,2-d]pyrimidine-2,4(1H,3H)-dione] | 26 nM |
| O=C1C[C@@H](n2c(=O)[nH]c3cc(-c4ccccc4Cl)sc3c2=O)CCN1 [Example 5, (S)-6-(2-chlorophenyl)-3-(2-oxopiperidin-4-yl)thieno[3,2-d]pyrimidine-2,4(1H,3H)-dione] | 24.6 nM |
| COc1ccc(Cl)c(-c2cc3c(s2)c(=O)n([C@@H]2CCCNC(=O)C2)c(=O)n3CC#N)c1 [Example 28, (R)-2-(6-(2-chloro-5-methoxyphenyl)-2,4-dioxo-3-(2-oxoazepan-4-yl)-3,4-dihydrothieno[3,2-d]pyrimidin-1(2H)-yl)acetonitrile] | < 3.75 nM |
| N#CCCn1c(=O)n([C@@H]2CCCNC(=O)C2)c(=O)c2sc(-c3ccccc3C#N)cc21 [Example 52, (R)-2-(1-(2-cyanoethyl)-2,4-dioxo-3-(2-oxoazepan-4-yl)-1,2,3,4-tetrahydrothieno[3,2-d]pyrimidin-6-yl)benzonitrile] | 66.7 nM |
| COc1cc(-c2cc3[nH]c(=O)n([C@@H]4CCCNC(=O)C4)c(=O)c3s2)c(Cl)cc1Cl [Example 47, (R)-6-(2,4-dichloro-5-methoxyphenyl)-3-(2-oxoazepan-4-yl)thieno[3,2-d]pyrimidine-2,4(1H,3H)-dione] | < 3.75 nM |
| O=C1CC(n2c(=O)[nH]c3cc(-c4ccccc4Cl)sc3c2=O)CCCN1 (centres unmarked) [Example 8, 6-(2-chlorophenyl)-3-(2-oxoazepan-4-yl)thieno[3,2-d]pyrimidine-2,4(1H,3H)-dione] | 16.8 nM |
| O=C1C[C@H](n2c(=O)[nH]c3cc(-c4ccccc4Cl)sc3c2=O)CCCN1 (single isomer, unassigned) [Example 21] | 5.97 nM |
| COc1ccc(Cl)c(-c2cc3[nH]c(=O)n(C4CCCNC(=O)C4)c(=O)c3s2)c1 (centres unmarked) [Example 20, 6-(2-chloro-5-methoxyphenyl)-3-(2-oxoazepan-4-yl)thieno[3,2-d]pyrimidine-2,4(1H,3H)-dione] | < 3.75 nM |
| COc1ccc(Cl)c(-c2ccc3c(=O)n(C4CCCNC(=O)C4)c(=O)[nH]c3c2)c1 (centres unmarked) [Example 27, 7-(2-chloro-5-methoxyphenyl)-3-(2-oxoazepan-4-yl)quinazoline-2,4(1H,3H)-dione] | 107 nM |
| O=C1CC(n2c(=O)[nH]c3cc(-c4ccccc4Cl)sc3c2=O)CCN1 (centres unmarked) [Example 1, 6-(2-chlorophenyl)-3-(2-oxopiperidin-4-yl)thieno[3,2-d]pyrimidine-2,4(1H,311)-dione] | 92.8 nM |
| COc1cc(-c2cc3c(s2)c(=O)n([C@@H]2CCCNC(=O)C2)c(=O)n3CCC(=O)N(C)C)c(Cl)cc1F [Example 40, (R)-3-(6-(2-chloro-4-fluoro-5-methoxyphenyl)-2,4-dioxo-3-(2-oxoazepan-4-yl)-3,4-dihydrothieno[3,2-d]pyrimidin-1(2H)-yl)-N,N-dimethylpropanamide] | 47.4 nM |
| COc1cc(-c2cc3c(s2)c(=O)n([C@H]2CCCNC(=O)C2)c(=O)n3CC#N)c(Cl)cc1F [Example 35, (S)-2-(6-(2-chloro-4-fluoro-5-methoxyphenyl)-2,4-dioxo-3-(2-oxoazepan-4-yl)-3,4-dihydrothieno[3,2-d]pyrimidin-1(2H)-yl)acetonitrile] | 31.4 nM |
| COc1cnc(Cl)c(-c2cc3[nH]c(=O)n([C@@H]4CCCNC(=O)C4)c(=O)c3s2)c1 [Example 44, (R)-6-(2-chloro-5-methoxypyridin-3-yl)-3-(2-oxoazepan-4-yl)thieno[3,2-d]pyrimidine-2,4(1H,3H)-dione] | 9 nM |
| COc1cc(-c2cc3[nH]c(=O)n([C@@H]4CCCNC(=O)C4)c(=O)c3s2)c(C#N)cc1F [Example 46, (R)-2-(2,4-dioxo-3-(2-oxoazepan-4-yl)-1,2,3,4-tetrahydrothieno[3,2-d]pyrimidin-6-yl)-5-fluoro-4-methoxybenzonitrile] | 6.38 nM |
| COc1ccc(Cl)c(-c2cc3[nH]c(=O)n([C@H]4CCNC(=O)C4)c(=O)c3s2)c1 [Example 17, (S)-6-(2-chloro-5-methoxyphenyl)-3-(2-oxopiperidin-4-yl)thieno[3,2-d]pyrimidine-2,4(1H,3H)-dione] | 8.89 nM |

| Compound | IC50 |
| --- | --- |
| COc1ccc(C#N)c(-c2cc3[nH]c(=O)n(C4CCCNC(=O)C4)c(=O)c3s2)c1 (centres unmarked) [Example 25, 2-(2,4-dioxo-3-(2-oxoazepan-4-yl)-1,2,3,4-tetrahydrothieno[3,2-d]pyrimidin-6-yl)-4-methoxybenzonitrile] | 13 nM |
| COc1cc(-c2cc3[nH]c(=O)n(C4CCNC(=O)C4)c(=O)c3s2)c(Cl)cc1F (centres unmarked) [Example 14, 6-(2-chloro-4-fluoro-5-methoxyphenyl)-3-(2-oxopiperidin-4-yl)thieno[3,2-d]pyrimidine-2,4(1H,3H)-dione] | 25.8 nM |
| COc1cc(-c2cc3[nH]c(=O)n([C@@H]4CC(=O)NC[C@H](C)C4)c(=O)c3s2)c(Cl)cc1F (single isomer, unassigned) [Example 54] | 6.38 nM |
| O=C1C[C@H](n2c(=O)[nH]c3cc(-c4ccccc4Cl)sc3c2=O)CCN1 [Example 4, (R)-6-(2-chlorophenyl)-3-(2-oxopiperidin-4-yl)thieno[3,2-d]pyrimidine-2,4(1H,3H)-dione] | 195 nM |
| Cn1cc(-c2cccc(Cl)c2-c2cc3[nH]c(=O)n(C4CCNC(=O)C4)c(=O)c3s2)c(C(F)(F)F)n1 (centres unmarked) [Example 12, 6-(2-chloro-6-(1-methyl-3-(trifluoromethyl)-1H-pyrazol-4-yl)phenyl)-3-(2-oxopiperidin-4-yl)thieno[3,2-d]pyrimidine-2,4(1H,3H)-dione] | 187 nM |
| COc1cnc(Cl)c(-c2cc3c(s2)c(=O)n([C@@H]2CCCNC(=O)C2)c(=O)n3CCC#N)c1 [Example 50, (R)-3-(6-(2-chloro-5-methoxypyridin-3-yl)-2,4-dioxo-3-(2-oxoazepan-4-yl)-3,4-dihydrothieno[3,2-d]pyrimidin-1(2H)-yl)propanenitrile] | 247 nM |
| COc1cc(-c2cc3[nH]c(=O)n([C@H]4CNC(=O)C4)c(=O)c3o2)c(Cl)cc1F [Example 57, 6-(2-chloro-4-fluoro-5-methoxy-phenyl)-3-[(3R)-5-oxopyrrolidin-3-yl]-1H-furo[3,2-d]pyrimidine-2,4-dione] | > 1000 nM |
| CNC(=O)CCn1c(=O)n([C@@H]2CCCNC(=O)C2)c(=O)c2sc(-c3cc(OC)c(F)cc3Cl)cc21 [Example 42, (R)-3-(6-(2-chloro-4-fluoro-5-methoxyphenyl)-2,4-dioxo-3-(2-oxoazepan-4-yl)-3,4-dihydrothieno[3,2-d]pyrimidin-1(2H)-yl)-N-methylpropanamide] | 34.2 nM |
| COc1ccc(Cl)c(-c2cc3[nH]c(=O)n([C@H]4CCCNC(=O)C4)c(=O)c3s2)c1 (single isomer, unassigned) [Example 24] | 55 nM |
| O=C1C[C@H](n2c(=O)[nH]c3cc(-c4ccccc4Cl)sc3c2=O)CN1 [Example 2, 6-(2-chlorophenyl)-3-[(3S)-5-oxopyrrolidin-3-yl]-1H-thieno[3,2-d]pyrimidine-2,4-dione] | > 50000 nM |
| COc1cc(-c2cc3[nH]c(=O)n([C@@H]4CCCNC(=O)C4)c(=O)c3o2)c(Cl)cc1F [Example 59, (R)-6-(2-chloro-4-fluoro-5-methoxyphenyl)-3-(2-oxoazepan-4-yl)furo[3,2-d]pyrimidine-2,4(1H,3H)-dione] | 44.6 nM |
| COc1cc(-c2cc3[nH]c(=O)n([C@@H]4CCCNC(=O)C4)c(=O)c3s2)c(Cl)cc1F [Example 30, (R)-6-(2-chloro-4-fluoro-5-methoxyphenyl)-3-(2-oxoazepan-4-yl)thieno[3,2-d]pyrimidine-2,4(1H,3H)-dione] | < 3.75 nM |
| N#CCCn1c(=O)n([C@@H]2CCCNC(=O)C2)c(=O)c2sc(-c3ccccc3Cl)cc21 [Example 51, (R)-3-(6-(2-chlorophenyl)-2,4-dioxo-3-(2-oxoazepan-4-yl)-3,4-dihydrothieno[3,2-d]pyrimidin-1(2H)-yl)propanenitrile] | 26.3 nM |
| Cc1cc(-c2cccc(Cl)c2-c2cc3[nH]c(=O)n(C4CCNC(=O)C4)c(=O)c3s2)cnn1 (centres unmarked) [Example 10, 6-(2-chloro-6-(6-methylpyridazin-4-yl)phenyl)-3-(2-oxopiperidin-4-yl)thieno[3,2-d]pyrimidine-2,4(1H,3H)-dione] | 43 nM |
| COc1cc(-c2cc3c(s2)c(=O)n([C@H]2CCCNC(=O)C2)c(=O)n3C)c(Cl)cc1F [Example 33, (S)-6-(2-chloro-4-fluoro-5-methoxyphenyl)-1-methyl-3-(2-oxoazepan-4-yl)thieno[3,2-d]pyrimidine-2,4(1H,3H)-dione] | 393 nM |
| COc1ccc(Cl)c(-c2cc3[nH]c(=O)n([C@@H]4CCCNC(=O)C4)c(=O)c3s2)c1 (single isomer, unassigned) [Example 23] | < 3.75 nM |
| O=C1C[C@@H](n2c(=O)[nH]c3cc(-c4ccccc4Cl)sc3c2=O)CN1 [Example 3, 6-(2-chlorophenyl)-3-[(3R)-5-oxopyrrolidin-3-yl]-1H-thieno[3,2-d]pyrimidine-2,4-dione] | 1610 nM |
